Laboratory results: paper PMC12136788
This is one part of the list.

B1: ENSG00000147421:stop:overlap|stop_codon|ENSG00000147421|stop_codon|NA|stop_codon (ssRNA)
RNA: GGGAGUUCUACAGUCCGACGAUCACACUUGGUCCCCUGAGAGAAGGAUGGAAGAAAAUAAAUGGAAGUUGCUUUCUGCAGGGUAGGAGAUUGGCUGGACAGUUACUUCAAUGAGAAUCAAUACCCAGAUGAAGCAAAGAGGGACAACAGAGGAUUGAGCAUCA
B2: chr17:73284618:73284719:-|3pUTR|ENSG00000179604|msi1|FALSE|unique (ssRNA)
RNA: GGGAGUUCUACAGUCCGACGAUCGGGCACUCGCUCAGUCCCUAGGGGCUUGUUUGUUCUUUAUUAUUGUGUUUAAAUCCUUAUAGAGCAAUAUCAGGAUGGUGUUAAUAGGUCUGCCUCAGAAUGAGAAUCAAUCCUUUUAGACAACAGAGGAUUGAGCAUCA
B3: ENSG00000071189:stop:overlap|stop_codon|ENSG00000071189|stop_codon|NA|stop_codon (ssRNA)
RNA: GGGAGUUCUACAGUCCGACGAUCUUGGACCCUUUGUAAUAUUUUAUUUGACAUUUUAUAUCCUCUGCUUUGUGGGUGGUGCUUAGAAGAAAUGAAACGGGAAGCCAGGACUAUUAAGAUUGAUAGAAGAUUGACGGGUGCCAACAACAGAGGAUUGAGCAUCA
B4: chr5:74627411:74627511:-|3pUTR|ENSG00000171617|msi1_unk|total|mutant (ssRNA)
RNA: GGGAGUUCUACAGUCCGACGAUCUUUGUAAAACUGUUAUUUUUUUUUUUUUCACAAUGUGAAACUGAAGGUCAAUAAAUUAUCCGAGAUUUUCUCUUCAUUAUGUGUGUGGGUCUUCAUUUGAAUAAGACACAAUUUGAGGCACAACAGAGGAUUGAGCAUCA
B5: chr7:101137467:101137738:+|3pUTR|ENSG00000106366|msi1|FALSE|unique (ssRNA)
RNA: GGGAGUUCUACAGUCCGACGAUCGUUAAAAGAUGGUAAACCAGAUCUGUCUCCAAGACCUUGGCCUCUCCUUGGAGGACCUUUAGGUCAAACUCCCUAGUCUCCACCUGAGACCCUGGGAGAGAAGUUUGAAGCACAACUCCCCAACAGAGGAUUGAGCAUCA
B6: ENSG00000107863:be:win_3251|CDS|ENSG00000107863|bound_else_gene|NA|bound_elsewhere_windowed (ssRNA)
RNA: GGGAGUUCUACAGUCCGACGAUCCUUUGCUUGGUGCUAAAUCAGAGCCAAAGACUCAAAGCCCACACUCUCCGAAGGAAGAGUCGGAAAGGAAACUUCUCAGUAAAGAUGAUACCAGUCCCCCAAAAGACAAAGGCACAUGGACAACAGAGGAUUGAGCAUCA
B7: chr19:582815:582998:+|CDS_3pUTR|ENSG00000172270|msi1_unk|FALSE|overlapping (ssRNA)
RNA: GGGAGUUCUACAGUCCGACGAUCUCAUACACUUCCUUCUUUUUUAAAAAAGUUGGGUUUUCUCCAUUCAGGAUUCUGUUCCUUAGGUUUUUUUCCUUCUGAAGUGUUUCACGAGAGCCCGGGAGCUGCUGCCCUGCGGCCCCGCAACAGAGGAUUGAGCAUCA
B8: chr2:157736639:157736676:-|3pUTR|ENSG00000115170|msi1_unk|FALSE|overlapping (ssRNA)
RNA: GGGAGUUCUACAGUCCGACGAUCCUUCACAUUUGUAUGUGUGUAGACUGUAACUUUUUUUCAGUUCAUAUGCAGAACGUAUUUAGCCAUUACCCACGUGACACCACCGAAUAUAUUACUGAUUUAGAAGCAAAGAUUUCAGUACAACAGAGGAUUGAGCAUCA
B9: chr11:6395124:6395533:-|three_prime_utr|ENSG00000166313|control|control|control (ssRNA)
RNA: GGGAGUUCUACAGUCCGACGAUCCCCUCCACCUGCUUGUGUUGGGCCCCAGGGAACUAAAGGGUGUGGGUCAGGGAGGGGUCUAGAGGCUAUUCCUAGGCCUCAGGCCUCCCAAAUAUGCCCCUCCCCAGUAGCUACGGUUCCCAACAGAGGAUUGAGCAUCA
B10: chr21:29063390:29063550:-|CDS|ENSG00000156261|unk|FALSE|unique (ssRNA)
RNA: GGGAGUUCUACAGUCCGACGAUCGUUUACUUGUUUUGCCAGGGAACAGUGUUGAUAAAGACUGCUGAAGAAUUGAUGAAUUUUAGUAAGGGAGAAGAAAACCUCAUGGAUGCACAAGUCAAAGCUAUUGCUGAUACUGGUGCACAACAGAGGAUUGAGCAUCA
B11: chr13:52643008:52643109:+|CDS|ENSG00000139675|unk|total|mutant (ssRNA)
RNA: GGGAGUUCUACAGUCCGACGAUCCAUACUGUGAAGGGCCACAACUGUGAAGUCCGAAAAGCCCUGCCAAAGCAAGAGAUGGCCCGUGCUUCAUCCAGCCAAAGAGGUCGAAGGGGUUCUGGAAACUUUGGUGGUGGUCGUGGACAACAGAGGAUUGAGCAUCA
B12: chr2:190659421:190659522:+|CDS|ENSG00000138386|unk|FALSE|unique (ssRNA)
RNA: GGGAGUUCUACAGUCCGACGAUCAGAGACUGGGUCACAAACCCUGGGCUUUUCAAUCAGCCACUGACUUCCCUUCCUGUCAGUAGCAUACCCAUCUAUAAAUUACCAGAGGGAUCACCAACAUGGCUGGGAAUAUCCUGCAGUCAACAGAGGAUUGAGCAUCA
B13: ENSG00000038382:stop:overlap|stop_codon|ENSG00000038382|stop_codon|NA|stop_codon (ssRNA)
RNA: GGGAGUUCUACAGUCCGACGAUCUUGUAAGUAUAGGCGUUCAGAAUUGUAAGUCUAAAGGUAACACAAUUGCAGUCUUUUUGUAGGUAGAGAAGAAUUGUUCAUUGUCUUCAGUUUAACCUCCCAAUCUGUCCUGAAAUGUUCCAACAGAGGAUUGAGCAUCA
B14: chr12:123662440:123662541:+|3pUTR|ENSG00000111358|unk|total|mutant (ssRNA)
RNA: GGGAGUUCUACAGUCCGACGAUCAAUGGAAAUCACAAUUUUAAGUCCCGGAAAUAAAGUAUUAUAUAUACUUUCAAACAAGCCCGCAAGGCUUUUAUUAUUACUUUUUUAUUUGAAAUAUCUUAUAUAUUUGGUCCGUUCUGUCAACAGAGGAUUGAGCAUCA
B15: chr2:240467872:240467977:+|3pUTR|ENSG00000063660|msi1|FALSE|unique (ssRNA)
RNA: GGGAGUUCUACAGUCCGACGAUCCUCUGGCACAGUGAUGCCGGGCGCCAGGACAGCAGCACUCCCGCUGCACACAGACGGCCUAGGGGUGGCGCUCAGACCCCACCCUACGCUCAUCUCUGGAAGGGGCAGCCCUGAGUGGUCCAACAGAGGAUUGAGCAUCA
B16: ENSG00000162521:stop:overlap|stop_codon|ENSG00000162521|stop_codon|NA|stop_codon (ssRNA)
RNA: GGGAGUUCUACAGUCCGACGAUCGUUCUGUAUCAGAAGACAAUAUCAUGCAAGUGUGGCAAAUGGAGUUAGUCCUUGACCACUAGUUUGAUGCCAUCUCCAUUUUGGGUGACCUGUUUCACCAGCAGGCCUGUUACUCUCCAUCAACAGAGGAUUGAGCAUCA
B17: chr2:231108229:231108516:-|three_prime_utr|ENSG00000135914|control|control|control (ssRNA)
RNA: GGGAGUUCUACAGUCCGACGAUCAAGAAUAUCUAAUUUUCCUAAUUUGGACAAGAUUAUUCCAUGAGGAAAAUAAUUUUAUAUAGCUACAAAUGAAAACAAUCCAGCACUCUGGUUAAAUUUUAAGGUAUUCGAAUGAAAUAACAACAGAGGAUUGAGCAUCA
B18: chr1:39623434:39626506:-|three_prime_utr|ENSG00000163909|control|control|control (ssRNA)
RNA: GGGAGUUCUACAGUCCGACGAUCCCCCAGUCAGGAGCAAUGACUGACUGGCUGCAGCCUUCCCACGCCAAGAGGCUGGAACAUAGUGUCUGCCUCGCUUCCUGGAGAUAGUAACUGAGCAGGGGCUACAAAGAGGUCUCCUGGCAACAGAGGAUUGAGCAUCA
B19: chr2:85649053:85649154:+|3pUTR|ENSG00000168883|unk|total|mutant (ssRNA)
RNA: GGGAGUUCUACAGUCCGACGAUCUUCAGCAGGGCAGAACCCUUCUCCAGAUGUGUGUAACUUAUGUCUUGAGUAUCUGGGAGCCGUUGAAGAACAGAUAAUUCCUUCCAAACAUCAAGCCUUGGGAUUCUUGGAGCAAGCAGACAACAGAGGAUUGAGCAUCA
B20: ENSG00000180398:stop:overlap|stop_codon|ENSG00000180398|stop_codon|NA|stop_codon (ssRNA)
RNA: GGGAGUUCUACAGUCCGACGAUCAUGAUGACAAGAACAAUGAUGGAUACAUUGACUAUGCUGAAUUUGCAAAAUCACUGCAGUAGAUGUUAUUUGGCCAUCUCCUGGUUAUAUACAAAUGUGACCCGUGAUAAUGUGAUUGAACAACAGAGGAUUGAGCAUCA
B21: chr12:48782793:48782894:-|CDS|ENSG00000174233|msi1|FALSE|unique (ssRNA)
RNA: GGGAGUUCUACAGUCCGACGAUCGCACUGUUGGCCUGUGCCGCCGCCCUGUUCGUGGGGCUCAUGGUGGUGUGUAACCGGCAUAGCUUCCGCCAGGACUCCAUGUGGGUGGUGAGCUACGUGGUGCUGGGCAUCCUGGCGGCACAACAGAGGAUUGAGCAUCA
B22: ENSG00000241258:stop:overlap|stop_codon|ENSG00000241258|stop_codon|NA|stop_codon (ssRNA)
RNA: GGGAGUUCUACAGUCCGACGAUCAGGCUGAGCAGAAGAAGAAUACAAACAGCAAUGUGGCAAUGGACGAAGAGGACCCAGCAUAGAAGAGCACAGCUGGCCCCGGCGUUUCAUGAAGUCAGAAGGCCUGGCAGCCAUUUCCUGCAACAGAGGAUUGAGCAUCA

The binders below were run against MSI1 full-length (mouse, UniProt Q61474 1-362) (assay: nsRBNS (natural sequence RNA bind-n-seq); RBNS binding buffer (assumed for nsRBNS): 25 mM Tris pH 7.5, 150 mM KCl, 3 mM MgCl2, 0.01% Triton X-100, 500 ug/ml BSA, 20 U/ml SUPERase-In, 4 C; UNK is unkempt and MSI1 is Musashi-1; names of the RNAs are library labels; protein concentration not given here; high values mean tight binding).
Sequence of UniProt Q61474 (Q61474 whole entry): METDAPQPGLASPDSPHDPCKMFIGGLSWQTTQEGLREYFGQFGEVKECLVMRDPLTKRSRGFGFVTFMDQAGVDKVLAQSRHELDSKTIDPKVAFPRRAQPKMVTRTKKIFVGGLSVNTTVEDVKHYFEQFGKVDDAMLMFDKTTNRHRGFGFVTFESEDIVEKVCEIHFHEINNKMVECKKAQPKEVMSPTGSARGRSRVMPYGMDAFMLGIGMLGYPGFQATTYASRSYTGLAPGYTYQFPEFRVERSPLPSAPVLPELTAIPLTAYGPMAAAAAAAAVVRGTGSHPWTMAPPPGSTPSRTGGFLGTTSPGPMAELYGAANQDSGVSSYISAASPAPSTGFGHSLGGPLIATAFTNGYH

| Binder | binding signal [enrichment R] |
| --- | --- |
| B1 | 0.34 |
| B2 | 3.7 |
| B3 | 0.545 |
| B4 | 0.282 |
| B5 | 0.316 |
| B6 | 0.372 |
| B7 | 0.337 |
| B8 | 3.92 |
| B9 | 0.551 |
| B10 | 0.42 |
| B11 | 0.374 |
| B12 | 0.584 |
| B13 | 1.12 |
| B14 | 1.62 |
| B15 | 0.363 |
| B16 | 0.314 |
| B17 | 5.53 |
| B18 | 0.462 |
| B19 | 0.345 |
| B20 | 0.631 |
| B21 | 0.411 |
| B22 | 0.543 |
